Measured values as given in PubChem BioAssay AID927 (National Center for Advancing Translational Sciences (NCATS), 2007).
Values joined by “and” are separate entries in the source; they are usually repeats but may differ in a detail not shown here. Identical values can stand only once. The whole screen tested about 60,000 compounds, of which about 65 (0.1%) were called active. This list was built around the results that the source calls inconclusive (neither active nor inactive); the mix of calls is not that of the screen. Calls follow the shape of the dose curve; as a rule, active = well fitted inhibition curve with a large enough effect; inconclusive = small, poorly fitted or top-dose-only effect; inactive = no such curve, though single readings can be large or run the other way. Potencies beside an inconclusive call are fits to weak or partial responses and may not hold up.

target: Ubiquitin carboxyl-terminal hydrolase 2 (Homo sapiens) (UniProt O75604); assay: qHTS Assay for Inhibitors of Ubiquitin-specific Protease USP2a; conditions: USP2a enzymatic assay; Potency: qHTS inhibition; activity change, negative = inhibition: at 38.3 µM (top of the series); also: nearly all actives have a fitted effect of over 60% in size;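 as to activity change, negative = inhibition: plate controls were DMSO for no effect and NEM full inhibition control for full effect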
Sequence of UniProt O75604 (O75604 whole entry, looked up): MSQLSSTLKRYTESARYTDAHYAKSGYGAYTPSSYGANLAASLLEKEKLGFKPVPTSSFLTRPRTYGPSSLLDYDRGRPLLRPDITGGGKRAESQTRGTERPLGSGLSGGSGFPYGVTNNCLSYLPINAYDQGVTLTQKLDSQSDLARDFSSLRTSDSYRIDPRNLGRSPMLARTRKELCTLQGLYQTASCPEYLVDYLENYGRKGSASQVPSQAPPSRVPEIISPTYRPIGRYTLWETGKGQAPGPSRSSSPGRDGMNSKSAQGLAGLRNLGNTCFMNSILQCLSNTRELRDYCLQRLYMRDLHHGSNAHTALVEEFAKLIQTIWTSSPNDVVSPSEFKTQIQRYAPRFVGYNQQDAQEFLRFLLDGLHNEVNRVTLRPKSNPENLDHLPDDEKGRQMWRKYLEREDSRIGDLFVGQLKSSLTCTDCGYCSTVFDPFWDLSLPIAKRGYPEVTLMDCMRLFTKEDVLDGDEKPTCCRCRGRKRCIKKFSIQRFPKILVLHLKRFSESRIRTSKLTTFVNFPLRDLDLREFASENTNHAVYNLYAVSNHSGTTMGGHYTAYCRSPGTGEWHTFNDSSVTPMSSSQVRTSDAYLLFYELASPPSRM
In short: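 20 nM USP2 core + cpd, 30 min RT; add 20 nM Ub-PLA2/20 uM NBD C6-HPC; read Ex460/Em535 at 0 h and 2.5 h. Normalized to NEM; qHTS curve fit/classification.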
Potency is read from the fitted curve at half-maximal effect; tags tell the direction and shape of the fitted curve.

SMILES	Potency	activity change, negative = inhibition
c1ccc2c(c1)CCN(c1nc3cc4c(cc3s1)OCCO4)C2	inconclusive: 12.6 µM [inhibitor, single point]	
COc1ccc(-c2nn3c(-c4ccccc4)nnc3s2)cc1	inconclusive: 15.8 µM [inhibitor, single point]	
c1cc(N2CCCC2)ccc1C(c1nnnn1C1CCCCC1)N1CCOCC1 (stereo not given)	inactive	
O=C(CSc1nnnn1C1CCCCC1)NCc1ccco1	inconclusive: 3.98 µM [inhibitor, single point]	
c1ccc(CNc2nc(-c3ccc4c(c3)OCO4)nc3ccccc23)cc1		inconclusive: -78.5% [inhibitor]
COC(=O)c1sc(N2C(=O)c3oc4ccccc4c(=O)c3C2c2cccs2)nc1C (stereo not given)	inactive	
C[n+]1cc2c3c(ccc2c2ccc4cc5c(cc4c21)OCO5)OCO3	inconclusive: 25.1 µM [inhibitor, partial curve]	
Cc1cc(C)c2cc(C#N)c(NCCCNC(=O)CCC(=O)O)nc2c1	inconclusive: 12.6 µM [inhibitor, single point]	
CCOC(=O)N1CCN(C(=O)CCSc2ccccc2)CC1	inactive	
COc1ccc(CNc2nc(-c3cccc(NS(C)(=O)=O)c3)nc3ccccc23)c(OC)c1	inconclusive: 20 µM [inhibitor, single point]	
N.N.N.N.N.N.N.N.N.N.N.N.N.N.O.O.[Ru].[Ru].[Ru]	inconclusive: 15.8 µM [inhibitor, partial curve]	
N#C/C(=C\c1c[nH]c2ccccc12)C(=O)c1ccc(O)c(O)c1	inconclusive: 31.6 µM [inhibitor, single point]	
O=S(=O)(c1ccccc1)N1CCC2(CC1)CN(c1ccccn1)C2	inconclusive: 25.1 µM [inhibitor, single point]	
CC(=O)N1CCC2(CCCN(Cc3ccc(C#N)cc3)C2)CC1	inactive	
CCOC(=O)c1ccc(N2C(=O)c3n[nH]c(C)c3C2c2ccc(OC)cc2OC)cc1 (stereo not given)	inconclusive: 25.1 µM [inhibitor, single point]	
COc1ccc(S(=O)(=O)n2ccnc2)c2cccnc12	inactive	
COc1ccccc1-c1c(NC(=O)c2ccco2)n(-c2ccccc2)nc(C)c1=O	inactive	
CCOC(=O)N1CCC(NCCNC(=O)c2ccccc2Cl)CC1	inconclusive: 5.01 µM [inhibitor, single point]	
CCOc1ccc(S(=O)(=O)N(CC(=O)O)c2ccccc2)cc1	inconclusive: 6.31 µM [inhibitor, single point]	
O=C(Nc1ccccc1N1CCCCC1)c1ccccc1F	inconclusive: 25.1 µM [inhibitor, single point]	
O=C(CNCCC1=CCCCC1)Nc1ccccc1N1CCCCC1	inconclusive: 25.1 µM [inhibitor, single point]	
CCCCCCC/C=C\CCCCCCCCC(=O)O	active: 12.6 µM	
Cc1nc2ccc(NC(=O)N3CCCCC3)cc2s1	inactive	
C=CC(C1=CC(=O)C(OC)=CC1=O)c1ccccc1 (stereo not given)	inconclusive: 12.6 µM [inhibitor, partial curve]	

SMILES	Potency	activity change, negative = inhibition
CCCc1cc(-c2n[nH]c(C)c2-c2ccc(C(=O)OCC)o2)c(O)cc1O	inconclusive: 25.1 µM [inhibitor, single point]	
O=C(c1ccco1)N1CCN(c2ccc(Cl)c(Cl)c2)CC1	inactive	
CC1(C)CC(=O)C2=C(C1)OC(N)=C(C#N)C21C(=O)N2CCCc3cccc1c32 (stereo not given)	inconclusive: 12.6 µM [inhibitor, partial curve]	
Nc1c(S(=O)(=O)c2ccccc2)c2nc3ccccc3nc2n1/N=C/c1cccc(O)c1	inconclusive: 25.1 µM [inhibitor, single point]	
C/C(=C\c1ccccc1)CN1CCN(c2ccccc2)CC1	inconclusive: 12.6 µM [inhibitor, single point]	
COC(=O)CSc1nnc(-c2cccs2)n1-c1ccc(Cl)cc1	inactive	
COc1cccc(-c2ccc3ncnc(NCc4ccccc4OC)c3c2)c1		inconclusive: -39.7% [inhibitor]
O=C(O)CCC(=O)OC[C@@H](NC(=O)C(Cl)Cl)C(O)c1ccc([N+](=O)[O-])cc1 (stereo not given in full)	inactive	
COc1ccc(NC(=O)c2cc(-c3cc(C)cc(C)c3O)n[nH]2)cc1Cl	inconclusive: 15.8 µM [inhibitor, single point]	
COc1ccccc1CNc1nc(-c2ccc3c(c2)OCO3)nc2ccccc12	inconclusive: 12.6 µM [inhibitor, single point]	
Clc1cccc(-c2nnc(SCc3nc4ccccc4[nH]3)n2Cc2ccco2)c1	inactive	
O=C1CC(Sc2nnc(-c3ccccc3)o2)C(=O)N1c1ccccc1 (stereo not given)	inactive	
Cc1cc(C)n(-c2nnc3n2N=C(c2c[nH]c4ccccc24)CS3)n1	inconclusive: 5.01 µM [inhibitor, single point]	
C=CC(C1=CC(=O)C(OC)=CC1=O)c1ccc(OC)cc1 (stereo not given)	inconclusive: 10 µM [inhibitor, partial curve]	
CCCCn1c(SCc2ccc(Cl)cc2)nc2c1c(=O)[nH]c(=O)n2C	inconclusive: 25.1 µM [inhibitor, single point]	
Cc1cccnc1Nc1nc(-c2ccc(O)cc2O)cs1	inconclusive: 25.1 µM [inhibitor, single point]	
CCOc1ccc2nc3ccc4[nH]onc4c3c2c1	inactive	
Cc1cc(=O)n2c3c(cccc13)CCC2	inconclusive: 0.251 µM [inhibitor, full curve, poor fit]	
O=C(CCN1Cc2ccccc2C1)c1ccc2c(c1)OCCO2	inconclusive: 12.6 µM [inhibitor, partial curve]	
Cc1cccc(-n2nc3c(c2NC(=O)c2ccc(Br)o2)CSC3)c1	inconclusive: 20 µM [inhibitor, single point]	
Brc1ccc(C2Nc3cccc4cccc(c34)N2)o1	inconclusive: 25.1 µM [inhibitor, single point]	
CCOc1ccc(-c2[nH]ncc2Oc2ccccc2OCC)c(O)c1	inconclusive: 12.6 µM [inhibitor, single point]	
Cc1ccc(C2C(C#N)=C(N)SC(N)=C2C#N)cc1	inconclusive: 1.58 µM [inhibitor, full curve]	
c1ccc(-c2cccc(N3CC[C@@]4(CCCNC4)C3)c2)cc1	inactive	

SMILES	Potency	activity change, negative = inhibition
CCCc1c(-c2ccc(O)cc2)nn(-c2ccc(O)cc2)c1-c1ccc(O)cc1	inconclusive: 31.6 µM [inhibitor, single point]	
Cc1ccc(-n2ncc3c(=O)n(CC#N)cnc32)cc1	inactive	
Cc1cccc(CNc2ccnc(-c3cccc(C#N)c3)n2)c1	inconclusive: 25.1 µM [inhibitor, single point]	
CCOc1ccc2nc(NC(=O)C(CC)Sc3nc(C)cc(=O)[nH]3)sc2c1 (stereo not given)	inconclusive: 10 µM [inhibitor, single point]	
CCCc1cc(C(=O)N2CCN(c3ccccc3C)CC2)cs1	inconclusive: 10 µM [inhibitor, single point]	
Oc1ccc([C@@H]2CNCc3sccc32)cc1O	inactive	
CCCCCc1c(C)nc(NCc2ccccc2)[nH]c1=O	inactive	
CCN(CC)S(=O)(=O)c1cccc(-c2nnc(SCC(=O)c3cc(C)n(C)c3C)o2)c1	inactive	
Nc1nnc(-c2ccco2)s1	inactive	
Clc1ccccc1-c1nc(-n2ccnc2)c2ccccc2n1	inconclusive: 2.51 µM [inhibitor, single point]	
CCOC(=O)C1=C(C)NC(=O)NC1c1c(C)nn(-c2ccccc2)c1Cl (stereo not given)	inconclusive: 15.8 µM [inhibitor, single point]	
O=C(OCC1OC(OC(=O)c2cc(O)c(O)c(OC(=O)c3cc(O)c(O)c(O)c3)c2)[C@@H](OC(=O)c2cc(O)c(O)c(OC(=O)c3cc(O)c(O)c(O)c3)c2)C(OC(=O)c2cc(O)c(O)c(OC(=O)c3cc(O)c(O)c(O)c3)c2)C1OC(=O)c1cc(O)c(O)c(OC(=O)c2cc(O)c(O)c(O)c2)c1)c1cc(O)c(O)c(OC(=O)c2cc(O)c(O)c(O)c2)c1 (stereo not given in full)	active: 1 µM	
c1cncc(-c2nc(-n3ccnc3)c3ccccc3n2)c1	inconclusive: 10 µM [inhibitor, partial curve]	
O=C(Nc1ccccc1)N1CC[C@@]2(CCCN(C(=O)c3ccncc3)C2)C1	inconclusive: 10 µM [inhibitor, single point]	
CCOC(=O)C1C(=O)CC(C)(O)C(C(=O)OCC)C1/C=C/c1ccccc1 (stereo not given)	inactive	
Cc1[nH]nc2nc(SCC(=O)NCC3CCCO3)n(-c3ccc(Br)cc3)c(=N)c12 (stereo not given)	inactive	
COc1ccc(CNc2nc(-c3ccc(N(C)C)cc3)nc3ccccc23)c(OC)c1	inconclusive: 7.94 µM [inhibitor, single point]	
COc1ccccc1CNc1nc(-c2cccc(NS(C)(=O)=O)c2)nc2ccccc12	inconclusive: 20 µM [inhibitor, single point]	
Cn1c(=O)c2c(nc(N3CCCCCC3)n2Cc2cccc3ccccc23)n(C)c1=O	inconclusive: 15.8 µM [inhibitor, single point]	
CC(C)(C)n1nnnc1C(c1ccccc1F)N(Cc1ccco1)CC1CCCO1 (stereo not given)	inconclusive: 10 µM [inhibitor, partial curve]	
Cc1ccc(Cl)c(Nc2ccccc2C(=O)O)c1Cl	inconclusive: 7.94 µM [inhibitor, partial curve] and inconclusive: 10 µM [inhibitor, partial curve]	
c1cc(CSc2nnc(-c3ccc4c(c3)OCO4)o2)ccn1	inconclusive: 3.16 µM [inhibitor, single point]	
